Reference: patent US7425576B2, “Compounds as inhibitors of hepatitis C virus NS3 serine protease” (Schering Corporation, priority 2004, dated 2008)

Each compound was assayed against Recombinant heterodimeric HCV NS3/NS4A protease (strain 1a) (Hepatitis C virus genotype 1a, UniProt P27958) (assay: Spectrophotometric assay for HCV protease inhibitory activity (chromogenic ester substrates)). Settings: Table 3, Ki* range class.
Type: biochemical

Row | Compound | Ki [nM]
1 | C=CCNC(=O)C(=O)C(CCCC)NC(=O)[C@@H]1[C@@H]2[C@H](CN1C(=O)[C@@H](NC(=O)N[C@H](COC(C)(C)C)C(C)(C)C)C1CCCCC1)C2(C)C (some centres unmarked) [Example 1636] | 75 to 250
2 | CC(C)(C)[C@H](NC(=O)NC1(C(OCOCc2ccccc2)c2ccccc2)CCCCC1)C(=O)N1C[C@H]2[C@@H]([C@H]1C(=O)NC(CC1CC1)C(=O)C(N)=O)C2(C)C (some centres unmarked) [Example 1641] | < 75
3 | CC(C)(C)[C@H](NC(=O)NC1(C(O)c2ccccc2)CCCCC1)C(=O)N1C[C@H]2[C@@H]([C@H]1C(=O)NC(CC1CC1)C(=O)C(N)=O)C2(C)C (some centres unmarked) [Example 1642] | < 75
4 | CC(C)(C)[C@H](NC(=O)NC1(C(Cc2ccccc2)OCOCc2ccccc2)CCCCC1)C(=O)N1C[C@H]2[C@@H]([C@H]1C(=O)NC(CC1CC1)C(=O)C(N)=O)C2(C)C (some centres unmarked) [Example 1643] | 75 to 250
5 | CC(C)(C)[C@H](NC(=O)NC1(C(O)Cc2ccccc2)CCCCC1)C(=O)N1C[C@H]2[C@@H]([C@H]1C(=O)NC(CC1CC1)C(=O)C(N)=O)C2(C)C (some centres unmarked) [Example 1644] | < 75
6 | CC(C)(NC(=O)N[C@H](C(=O)N1C[C@H]2[C@@H]([C@H]1C(=O)NC(CC1CC1)C(=O)C(N)=O)C2(C)C)C(C)(C)C)C(OCOCc1ccccc1)c1ccccc1 (some centres unmarked) [Example 1647] | 75 to 250
7 | CC(C)(NC(=O)N[C@H](C(=O)N1C[C@H]2[C@@H]([C@H]1C(=O)NC(CC1CC1)C(=O)C(N)=O)C2(C)C)C(C)(C)C)C(O)c1ccccc1 (some centres unmarked) [Example 1648] | 75 to 250
8 | C=CCNC(=O)C(=O)C(CCCC)NC(=O)[C@@H]1[C@@H]2[C@H](CN1C(=O)[C@@H](NC(=O)N[C@H](COC)C(C)(C)C)C1(C)CCCCC1)C2(C)C (some centres unmarked) [Example 1649] | < 75
9 | C=CCNC(=O)C(=O)C(CCCC)NC(=O)[C@@H]1[C@@H]2[C@H](CN1C(=O)[C@@H](NC(=O)N[C@H](COC)C(C)C)C1(C)CCCCC1)C2(C)C (some centres unmarked) [Example 1650] | 75 to 250
10 | COC[C@@H](NC(=O)N[C@H](C(=O)N1C[C@H]2[C@@H]([C@H]1C(=O)NC(CC1CC1)C(=O)C(N)=O)C2(C)C)C1Cc2ccccc2C1)C(C)C (some centres unmarked) [Example 1651] | < 75
11 | COC[C@@H](NC(=O)N[C@H](C(=O)N1C[C@H]2[C@@H]([C@H]1C(=O)NC(CC1CCC1)C(=O)C(N)=O)C2(C)C)C1Cc2ccccc2C1)C(C)C (some centres unmarked) [Example 1652] | < 75
12 | CC(=O)OC(c1ccccc1)[C@@H](NC(=O)N[C@H](C(=O)N1C[C@H]2[C@@H]([C@H]1C(=O)NC(CC1CC1)C(=O)C(N)=O)C2(C)C)C(C)(C)C)C(C)C (some centres unmarked) [Example 1653] | 75 to 250
13 | COC[C@@H](NC(=O)N[C@H](C(=O)N1C[C@H]2[C@@H]([C@H]1C(=O)NC(CC1CC1)C(=O)C(N)=O)C2(C)C)C1(C)CCCCC1)C(C)(C)C (some centres unmarked) [Example 1654] | < 75
14 | COC[C@@H](NC(=O)N[C@H](C(=O)N1C[C@H]2[C@@H]([C@H]1C(=O)NC(CC1CCC1)C(=O)C(N)=O)C2(C)C)C1(C)CCCCC1)C(C)(C)C (some centres unmarked) [Example 1655] | < 75
15 | COC[C@@H](NC(=O)N[C@H](C(=O)N1C[C@H]2[C@@H]([C@H]1C(=O)NC(CC1CC1)C(=O)C(N)=O)C2(C)C)C1(C)CCCCC1)C(C)C (some centres unmarked) [Example 1656] | < 75
16 | COC[C@@H](NC(=O)N[C@H](C(=O)N1C[C@H]2[C@@H]([C@H]1C(=O)NC(CC1CCC1)C(=O)C(N)=O)C2(C)C)C1(C)CCCCC1)C(C)C (some centres unmarked) [Example 1657] | < 75
17 | CC(C)[C@H](NC(=O)N[C@H](C(=O)N1C[C@H]2[C@@H]([C@H]1C(=O)NC(CC1CC1)C(=O)C(N)=O)C2(C)C)C(C)(C)C)C(O)c1ccccc1 (some centres unmarked) [Example 1658] | 75 to 250
18 | COC[C@@H](NC(=O)N[C@H](C(=O)N1C[C@H]2[C@@H]([C@H]1C(=O)NC(CC1CCC1)C(=O)C(N)=O)C2(C)C)C1(C)CCCC1)C(C)(C)C (some centres unmarked) [Example 1659] | < 75
19 | COC[C@@H](NC(=O)N[C@H](C(=O)N1C[C@H]2[C@@H]([C@H]1C(=O)NC(CC1CC1)C(=O)C(N)=O)C2(C)C)C1(C)CCCC1)C(C)(C)C (some centres unmarked) [Example 1660] | < 75
20 | C=CCNC(=O)C(=O)C(CCC(F)(F)F)NC(=O)[C@@H]1[C@@H]2[C@H](CN1C(=O)[C@@H](NC(=O)N[C@H](COC)C(C)(C)C)C1(C)CCCC1)C2(C)C (some centres unmarked) [Example 1661] | 75 to 250
21 | C=CCNC(=O)C(=O)C(CC1CC1)NC(=O)[C@@H]1[C@@H]2[C@H](CN1C(=O)[C@@H](NC(=O)N[C@H](COC)C(C)(C)C)C1(C)CCCC1)C2(C)C (some centres unmarked) [Example 1662] | 75 to 250
22 | C=CCNC(=O)C(=O)C(CCC)NC(=O)[C@@H]1[C@@H]2[C@H](CN1C(=O)[C@@H](NC(=O)N[C@H](COC)C(C)(C)C)C1Cc3ccccc3C1)C2(C)C (some centres unmarked) [Example 1663] | 75 to 250
23 | C=CCNC(=O)C(=O)C(CC1CC1)NC(=O)[C@@H]1[C@@H]2[C@H](CN1C(=O)[C@@H](NC(=O)N[C@H](COC)C(C)(C)C)C1Cc3ccccc3C1)C2(C)C (some centres unmarked) [Example 1664] | 75 to 250

Row | Compound | Ki [nM]
24 | C=CCNC(=O)C(=O)C(CCC(F)(F)F)NC(=O)[C@@H]1[C@@H]2[C@H](CN1C(=O)[C@@H](NC(=O)N[C@H](COC)C(C)(C)C)C1Cc3ccccc3C1)C2(C)C (some centres unmarked) [Example 1665] | 75 to 250
25 | CCCC(NC(=O)[C@@H]1[C@@H]2[C@H](CN1C(=O)[C@@H](NC(=O)N[C@H](COC)C(C)(C)C)C1Cc3ccccc3C1)C2(C)C)C(=O)C(N)=O (some centres unmarked) [Example 1666] | < 75
26 | COC[C@@H](NC(=O)N[C@H](C(=O)N1C[C@H]2[C@@H]([C@H]1C(=O)NC(CCC(F)(F)F)C(=O)C(N)=O)C2(C)C)C1Cc2ccccc2C1)C(C)(C)C (some centres unmarked) [Example 1667] | < 75
27 | C=CCNC(=O)C(=O)C(CCC)NC(=O)[C@@H]1[C@@H]2[C@H](CN1C(=O)[C@@H](NC(=O)NC(C(C)C)[C@H](OC)c1ccccc1)C(C)(C)C)C2(C)C (some centres unmarked) [Example 1668] | 75 to 250
28 | CO[C@H](c1ccccc1)C(NC(=O)N[C@H](C(=O)N1C[C@H]2[C@@H]([C@H]1C(=O)NC(CC1CC1)C(=O)C(N)=O)C2(C)C)C(C)(C)C)C(C)C (some centres unmarked) [Example 1669] | < 75
29 | COC[C@@H](NC(=O)N[C@H](C(=O)N1C[C@H]2[C@@H]([C@H]1C(=O)NC(CC1CC1)C(=O)C(N)=O)C2(C)C)C1CCCCC1)C(C)(C)C (some centres unmarked) [Example 1670] | < 75
30 | C=CCNC(=O)C(=O)C(CCC)NC(=O)[C@@H]1[C@@H]2[C@H](CN1C(=O)[C@@H](NC(=O)N[C@H](COC)C(C)(C)C)C1CCCCC1)C2(C)C (some centres unmarked) [Example 1671] | 75 to 250
31 | COC[C@@H](NC(=O)N[C@H](C(=O)N1C[C@H]2[C@@H]([C@H]1C(=O)NC(CC1CCC1)C(=O)C(N)=O)C2(C)C)C1CCCCC1)C(C)(C)C (some centres unmarked) [Example 1672] | < 75
32 | CCC[C@@](C)(COC)NC(=O)N[C@H](C(=O)N1C[C@H]2[C@@H]([C@H]1C(=O)NC(CC1CCC1)C(=O)C(N)=O)C2(C)C)C1(C)CCCCC1 (some centres unmarked) [Example 1673] | 75 to 250
33 | CCC[C@@](C)(COC)NC(=O)N[C@H](C(=O)N1C[C@H]2[C@@H]([C@H]1C(=O)NC(CC1CC1)C(=O)C(N)=O)C2(C)C)C1(C)CCCCC1 (some centres unmarked) [Example 1674] | 75 to 250
34 | C=CCNC(=O)C(=O)C(CCCC)NC(=O)[C@@H]1[C@@H]2[C@H](CN1C(=O)[C@@H](NC(=O)N[C@H](COC(C)(C)C)C(C)(C)C)C1(C)CCCCC1)C2(C)C (some centres unmarked) [Example 1675] | > 250
35 | C#CCCC(NC(=O)[C@@H]1[C@@H]2[C@H](CN1C(=O)[C@@H](NC(=O)N[C@H](COC(C)(C)C)C(C)(C)C)C1(C)CCCCC1)C2(C)C)C(=O)C(=O)NCC=C (some centres unmarked) [Example 1676] | 75 to 250
36 | CC(C)(C)OC[C@@H](NC(=O)N[C@H](C(=O)N1C[C@H]2[C@@H]([C@H]1C(=O)NC(CC1CC1)C(=O)C(N)=O)C2(C)C)C1(C)CCCCC1)C(C)(C)C (some centres unmarked) [Example 1677] | < 75
37 | CC(C)(C)OC[C@@H](NC(=O)N[C@H](C(=O)N1C[C@H]2[C@@H]([C@H]1C(=O)NC(CC1CCC1)C(=O)C(N)=O)C2(C)C)C1(C)CCCCC1)C(C)(C)C (some centres unmarked) [Example 1678] | 75 to 250
38 | CCCCC(NC(=O)[C@@H]1[C@@H]2[C@H](CN1C(=O)[C@@H](NC(=O)N[C@H](COC(C)(C)C)C(C)(C)C)C1(C)CCCCC1)C2(C)C)C(=O)C(N)=O (some centres unmarked) [Example 1679] | 75 to 250
39 | C#CCCC(NC(=O)[C@@H]1[C@@H]2[C@H](CN1C(=O)[C@@H](NC(=O)NC1(COC(C)(C)C)CCCCC1)C1(C)CCCCC1)C2(C)C)C(=O)C(=O)NCC=C (some centres unmarked) [Example 1680] | < 75
40 | C=CCNC(=O)C(=O)C(CCCC)NC(=O)[C@@H]1[C@@H]2[C@H](CN1C(=O)[C@@H](NC(=O)NC1(COC(C)(C)C)CCCCC1)C1(C)CCCCC1)C2(C)C (some centres unmarked) [Example 1681] | > 250
41 | CC(C)(C)OCC1(NC(=O)N[C@H](C(=O)N2C[C@H]3[C@@H]([C@H]2C(=O)NC(CC2CCC2)C(=O)C(N)=O)C3(C)C)C2(C)CCCCC2)CCCCC1 (some centres unmarked) [Example 1682] | 75 to 250
42 | CC(C)(C)OCC1(NC(=O)N[C@H](C(=O)N2C[C@H]3[C@@H]([C@H]2C(=O)NC(CC2CC2)C(=O)C(N)=O)C3(C)C)C2(C)CCCCC2)CCCCC1 (some centres unmarked) [Example 1683] | < 75
43 | CCCCC(NC(=O)[C@@H]1[C@@H]2[C@H](CN1C(=O)[C@@H](NC(=O)NC1(COC(C)(C)C)CCCCC1)C1(C)CCCCC1)C2(C)C)C(=O)C(N)=O (some centres unmarked) [Example 1684] | 75 to 250
44 | C#CCCC(NC(=O)[C@@H]1[C@@H]2[C@H](CN1C(=O)[C@@H](NC(=O)N[C@@](C)(COC)CC(C)C)C1(C)CCCCC1)C2(C)C)C(=O)C(=O)NCC=C (some centres unmarked) [Example 1685] | 75 to 250
45 | C=CCNC(=O)C(=O)C(CCCC)NC(=O)[C@@H]1[C@@H]2[C@H](CN1C(=O)[C@@H](NC(=O)N[C@@](C)(COC)CC(C)C)C1(C)CCCCC1)C2(C)C (some centres unmarked) [Example 1686] | > 250

Same assay, conditions: Table 6, numeric Ki*

Row | Compound | Ki [nM]
46 | COC[C@@H](NC(=O)N[C@H](C(=O)N1C[C@H]2[C@@H]([C@H]1C(=O)NC(CC1CC1)C(=O)C(N)=O)C2(C)C)C1(C)CCCCC1)C(C)(C)C (some centres unmarked) [Example 1654] | 12
47 | COC[C@@H](NC(=O)N[C@H](C(=O)N1C[C@H]2[C@@H]([C@H]1C(=O)NC(CC1CCC1)C(=O)C(N)=O)C2(C)C)C1(C)CCCCC1)C(C)(C)C (some centres unmarked) [Example 1655] | 24
